# The other results are listed elsewhere or left out.
# B1: Langerin K313I (Homo sapiens), Q9UJ71 (protein)
# chain: STLNAQIPELKSDLEKASALNTKIRALQGSLENMSKLLKRQNDILQVVSQGWKYFKGNFYYFSLIPKTWYSAEQFCVSRNSHLTSVTSESEQEFLYKTAGGLIYWIGLTKAGMEGDWSWVDDTPFNKVQSARFWIPGEPNNAGNNEHCGNIKAPSLQAWNDAPCDITFLFICKRPYVPSEP
# Assays:
# Assay in all cases: glycan array binding signal (z-score within array); higher = stronger binding
# Details in all cases: glycan notation: IUPAC condensed, linker removed
# [1] = biological target: Gal(b1-4)GlcNAc(b1-6)GalNAc
# Summary of the method: (§1)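 Glycan array binding is given as a within-array Z-score, which can be read as non-binding when negative. The arrays, 3228 of them, came from the Consortium for Functional Glycomics database and were retained only where the protein sequence was available. Z-scores were averaged across arrays of the same protein sequence at different concentrations or buffers and across linkers.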
# [2] = biological target: Gal(b1-4)GlcNAc(b1-6)[Gal(b1-3)]GalNAc
# Summary of the method: as §1
# [3] = biological target: Gal(b1-4)GlcNAc(b1-6)[Gal(b1-4)GlcNAc(b1-3)]GalNAc
# Summary of the method: as §1
# Gal(b1-4)GlcNAc6P = biological target: Gal(b1-4)GlcNAc6P
# Summary of the method: as §1
# Gal(b1-6)Gal = biological target: Gal(b1-6)Gal
# Summary of the method: as §1
# Gal3S(b1-3)GalNAc = biological target: Gal3S(b1-3)GalNAc
# Summary of the method: as §1
# Gal3S(b1-3)GlcNAc = biological target: Gal3S(b1-3)GlcNAc
# Summary of the method: as §1
# [4] = biological target: Gal3S(b1-3)[Fuc(a1-4)]GlcNAc
# Summary of the method: as §1
# Gal3S(b1-4)Glc = biological target: Gal3S(b1-4)Glc
# Summary of the method: as §1
# Gal3S(b1-4)Glc6S = biological target: Gal3S(b1-4)Glc6S
# Summary of the method: as §1
# Gal3S(b1-4)GlcNAc = biological target: Gal3S(b1-4)GlcNAc
# Summary of the method: as §1
# [5] = biological target: Gal3S(b1-4)[Fuc(a1-3)]Glc6S
# Summary of the method: as §1
# [6] = biological target: Gal3S(b1-4)[Fuc(a1-3)]GlcNAc
# Summary of the method: as §1
# [7] = biological target: Gal3S(b1-4)[Fuc(a1-3)]GlcNAc6S
# Summary of the method: as §1
# Gal3S4S(b1-4)GlcNAc = biological target: Gal3S4S(b1-4)GlcNAc
# Summary of the method: as §1
# Gal3S6S(b1-4)GlcNAc = biological target: Gal3S6S(b1-4)GlcNAc
# Summary of the method: as §1
# Gal3S6S(b1-4)GlcNAc6S = biological target: Gal3S6S(b1-4)GlcNAc6S
# Summary of the method: as §1
# Gal4S(b1-4)GlcNAc = biological target: Gal4S(b1-4)GlcNAc
# Summary of the method: as §1
# Gal4S6S(b1-4)GlcNAc = biological target: Gal4S6S(b1-4)GlcNAc
# Summary of the method: as §1
# Gal6P(b1-4)GlcNAc = biological target: Gal6P(b1-4)GlcNAc
# Summary of the method: as §1
# Gal6S(b1-3)GlcNAc = biological target: Gal6S(b1-3)GlcNAc
# Summary of the method: as §1
# Gal6S(b1-3)GlcNAc6S = biological target: Gal6S(b1-3)GlcNAc6S
# Summary of the method: as §1
# Gal6S(b1-4)Glc = biological target: Gal6S(b1-4)Glc
# Summary of the method: as §1
binder,measurement,setting,value
B1,glycan array binding signal (z-score),[1],-0.274
same,glycan array binding signal (z-score),[2],-0.332
same,glycan array binding signal (z-score),[3],-0.299
same,glycan array binding signal (z-score),Gal(b1-4)GlcNAc6P,-0.339
same,glycan array binding signal (z-score),Gal(b1-6)Gal,-0.178
same,glycan array binding signal (z-score),Gal3S(b1-3)GalNAc,-0.388
same,glycan array binding signal (z-score),Gal3S(b1-3)GlcNAc,-0.376
same,glycan array binding signal (z-score),[4],0.004
same,glycan array binding signal (z-score),Gal3S(b1-4)Glc,-0.242
same,glycan array binding signal (z-score),Gal3S(b1-4)Glc6S,-0.326
same,glycan array binding signal (z-score),Gal3S(b1-4)GlcNAc,-0.351
same,glycan array binding signal (z-score),[5],0.389
same,glycan array binding signal (z-score),[6],-0.353
same,glycan array binding signal (z-score),[7],-0.39
same,glycan array binding signal (z-score),Gal3S4S(b1-4)GlcNAc,-0.338
same,glycan array binding signal (z-score),Gal3S6S(b1-4)GlcNAc,-0.296
same,glycan array binding signal (z-score),Gal3S6S(b1-4)GlcNAc6S,-0.401
same,glycan array binding signal (z-score),Gal4S(b1-4)GlcNAc,-0.384
same,glycan array binding signal (z-score),Gal4S6S(b1-4)GlcNAc,-0.392
same,glycan array binding signal (z-score),Gal6P(b1-4)GlcNAc,-0.298
same,glycan array binding signal (z-score),Gal6S(b1-3)GlcNAc,-0.362
same,glycan array binding signal (z-score),Gal6S(b1-3)GlcNAc6S,-0.386
same,glycan array binding signal (z-score),Gal6S(b1-4)Glc,-0.324
